Type in all cases: in vivo
Assay [1] deals with Alternaia brassicicola. The assay is described as follows: Test Example C: Alternaria sooty spot on cabbage. The note with it: for Test C control value (Alternaria sooty spot on cabbage) / Test C (control value class): 250 ppm spray; for Test C control value (Alternaria sooty spot on cabbage): preventive, control value class; for Test C (control value class): Alternaria sooty spot on cabbage; for Test C (control value class, Alternaria sooty spot on cabbage): in vivo. The source says: [Test Example C] Alternaria Sooty Spot on Cabbage
Seeds of a test plant (cabbage variety: Shikidori) were planted followed by cultivating until the cotyledons extended.

Assay [2] deals with Botrytis cinerea. The assay is described as follows: Test Example B: Gray mold on tomato. The note with it: for Test B control value (gray mold on tomato) / Test B (control value class): 250 ppm spray; for Test B control value (gray mold on tomato): preventive, control value class; for Test B (control value class): gray mold on tomato, Botrytis cinerea; for Test B (control value class, gray mold on tomato): in vivo. The source says: [Test Example B] Gray Mold on Tomato
Seeds of a test plant (tomato variety: Oogata Fukuju) were planted followed by cultivating until three to five first leaves (true leaves) appeared.

Assay [3] has as its system Puccinia recondita. The assay is described as follows: Test Example E: Brown rust on wheat. The note with it: for Test E control value (brown rust on wheat) / Test E (control value class): 250 ppm spray; for Test E control value (brown rust on wheat): preventive, control value class; for Test E (control value class): brown rust on wheat, Puccinia recondita; for Test E (control value class, brown rust on wheat): in vivo. The source says: [Test Example E] Brown Rust on Wheat

The test system of assay [4] is Blumeria graminis f sp. hordei. The assay is described as follows: Test Example D: Powdery mildew on barley. The note with it: for Test D control value (powdery mildew on barley) / Test D (control value class): 250 ppm spray; for Test D control value (powdery mildew on barley): preventive, control value class; for Test D (control value class): powdery mildew on barley; for Test D (control value class, powdery mildew on barley): in vivo. The source says:
[Test Example D] Powdery Mildew on Barley
After the sprayed dilutions were dried, conidia of Blumeria graminis f sp. hordei were inoculated to the plants by shaking off.

Assay [5] deals with Plasmopara viticola. The experiment in a line: Test Example G: Downy mildew on vine. The note with it: for Test G control value (downy mildew on vine): 250 ppm spray (2.5 ml/pot), preventive, control value class; for Test G control value (downy mildew on vine) / Test G (control value class): 7-10 days after inoculation; for Test G (control value class): downy mildew on vine, Plasmopara viticola, 250 ppm spray; for Test G (control value class, downy mildew on vine): 250 ppm, sprayed 2.5 ml/pot before inoculation, evaluated 7-10 days after inoculation. The source says: [Test Example G] Downy Mildew on Vine
Seeds of a test plant (grape variety: Neomuscat) were planted followed by cultivating until three to four first leaves appeared. […] After the sprayed dilutions were dried, a zoosporangia suspension (1-2×10^4 zoosporangia/ml) of Plasmopara viticola was inoculated to the plants by spraying.

This is an account of results in patent publication US10299477B2 (priority 2015, dated 2019).

With `COCOc1ccc(Cl)c(-c2cc(Cl)c(=O)n(CC(F)F)c2-c2c(F)cccc2F)c1` [Compound 222], the “Test C control value (Alternaria sooty spot on cabbage)” value in assay [1] is given as “H (H shows more than 50% of control values)”. Moreover, the “Test B control value (gray mold on tomato)” value in assay [2] is “H (H shows more than 50% of control values)”. The “Test E control value (brown rust on wheat)” value in assay [3] is recorded as “H (H shows more than 50% of control values)”. Besides, in assay [4], the “Test D control value (powdery mildew on barley)” value is recorded as “H (H shows more than 50% of control values)”. Besides, the “Test G control value (downy mildew on vine)” value in assay [5] was “H (H shows more than 50% of control values)”.
Regarding `O=c1ccc(-c2c(F)c(F)c(F)c(F)c2F)c(-c2c(F)cccc2F)n1CC(F)F` [Compound 383], the “Test C (control value class)” value in assay [1] is listed as “L (L shows 50% or less of control values)”. Besides, in assay [2], the “Test B (control value class)” value is listed as “L (L shows 50% or less of control values)”. In assay [3], the “Test E (control value class)” value was “L (L shows 50% or less of control values)”. In addition, in assay [4], the “Test D (control value class)” value was “L (L shows 50% or less of control values)”. Besides, the “Test G (control value class)” value in assay [5] is “L (L shows 50% or less of control values)”.
Turning to `CCOc1cc(F)c(-c2c(-c3ccccc3Cl)cc(C)c(=O)n2CC)c(F)c1` [Compound 702], the “Test C (control value class, Alternaria sooty spot on cabbage)” value in assay [1] is recorded as “H (H shows more than 50% of control values)”. Moreover, the “Test B (control value class, gray mold on tomato)” value in assay [2] was “H (H shows more than 50% of control values)”. Besides, the “Test E (control value class, brown rust on wheat)” value in assay [3] is given as “H (H shows more than 50% of control values)”. Further, in assay [4], the “Test D (control value class, powdery mildew on barley)” value is on record as “H (H shows more than 50% of control values)”. For the same molecule, the “Test G (control value class, downy mildew on vine)” value in assay [5] is “H (H shows more than 50% of control values)”.
For `CCn1c(-c2c(F)cc(OCC(F)(F)F)cc2F)c(-c2cccc(F)c2Cl)cc(Cl)c1=O` [Compound 727], the “Test C (control value class, Alternaria sooty spot on cabbage)” value in assay [1] is recorded as “H (H shows more than 50% of control values)”. In addition, in assay [2], the “Test B (control value class, gray mold on tomato)” value is on record as “H (H shows more than 50% of control values)”. Moreover, in assay [3], the “Test E (control value class, brown rust on wheat)” value is “L (L shows 50% or less of control values)”. In addition, the “Test D (control value class, powdery mildew on barley)” value in assay [4] is recorded as “H (H shows more than 50% of control values)”. Besides, the “Test G (control value class, downy mildew on vine)” value in assay [5] is recorded as “L (L shows 50% or less of control values)”.
Consider `CCn1c(-c2c(F)cc(OC)cc2F)c(-c2ccccc2Cl)cc(C)c1=O` [Compound 701], for which, in assay [1], the “Test C (control value class, Alternaria sooty spot on cabbage)” value is “H (H shows more than 50% of control values)”. In addition, the “Test B (control value class, gray mold on tomato)” value in assay [2] is “H (H shows more than 50% of control values)”. Moreover, in assay [3], the “Test E (control value class, brown rust on wheat)” value is on record as “H (H shows more than 50% of control values)”. The “Test D (control value class, powdery mildew on barley)” value in assay [4] is reported as “H (H shows more than 50% of control values)”. Besides, the “Test G (control value class, downy mildew on vine)” value in assay [5] is “H (H shows more than 50% of control values)”.
As for `CCN1C(=O)CCC(c2cc(F)ccc2Cl)=C1c1c(F)cccc1F` [Compound 356], in assay [1], the “Test C control value (Alternaria sooty spot on cabbage)” value is “H (H shows more than 50% of control values)”. Also, the “Test B control value (gray mold on tomato)” value in assay [2] is on record as “H (H shows more than 50% of control values)”. Also, the “Test E control value (brown rust on wheat)” value in assay [3] is given as “H (H shows more than 50% of control values)”. Moreover, the “Test D control value (powdery mildew on barley)” value in assay [4] is “H (H shows more than 50% of control values)”. Also, the “Test G control value (downy mildew on vine)” value in assay [5] was “H (H shows more than 50% of control values)”.
With `Cn1c(-c2c(F)cccc2F)c(-c2c(F)c(F)c(F)c(F)c2F)ccc1=O` [Compound 373], the “Test C (control value class)” value in assay [1] is given as “L (L shows 50% or less of control values)”. Also, the “Test B (control value class)” value in assay [2] is “H (H shows more than 50% of control values)”. Also, the “Test E (control value class)” value in assay [3] is listed as “H (H shows more than 50% of control values)”. Besides, the “Test D (control value class)” value in assay [4] is given as “L (L shows 50% or less of control values)”. For the same molecule, in assay [5], the “Test G (control value class)” value is given as “L (L shows 50% or less of control values)”.
